From the supplement of paper PMC8728848
The other results are listed elsewhere or left out.

Legend:
Experiment in all cases: glycan array binding signal (z-score within array); higher = stronger binding
Conditions in all cases: glycan notation: IUPAC condensed, linker removed
[1] = target: Gal(a1-3)Gal(b1-4)GlcNAc(b1-2)Man(a1-3)[Gal(a1-3)Gal(b1-4)GlcNAc(b1-2)Man(a1-6)]Man(b1-4)GlcNAc(b1-4)GlcNAc
In short: (§1)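 From the Consortium for Functional Glycomics database, 3228 arrays were curated, keeping only those whose protein sequence was available. Binding is given as a within-array Z-score averaged across arrays sharing a protein sequence and across linkers. Negative Z-scores can be read as non-binding.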

[2] = target: Gal(a1-3)Gal(b1-4)GlcNAc(b1-3)GalNAc
In short: as §1

[3] = target: Gal(a1-3)Gal(b1-4)GlcNAc(b1-6)GalNAc
In short: as §1

[4] = target: Gal(a1-3)Gal(b1-4)[Fuc(a1-3)]GlcNAc
In short: as §1

[5] = target: Gal(a1-3)Gal(b1-4)[Fuc(a1-3)]GlcNAc(b1-2)Man(a1-3)[Gal(a1-3)Gal(b1-4)[Fuc(a1-3)]GlcNAc(b1-2)Man(a1-6)]Man(b1-4)GlcNAc(b1-4)GlcNAc
In short: as §1

Gal(a1-3)GalNAc = target: Gal(a1-3)GalNAc
In short: as §1

[6] = target: Gal(a1-3)[Gal(a1-4)]Gal(b1-4)GlcNAc
In short: as §1

[7] = target: Gal(a1-4)Gal(b1-3)GlcNAc(b1-2)Man(a1-3)[Gal(a1-4)Gal(b1-3)GlcNAc(b1-2)Man(a1-6)]Man(b1-4)GlcNAc(b1-4)GlcNAc
In short: as §1

Gal(a1-4)Gal(b1-4)Glc = target: Gal(a1-4)Gal(b1-4)Glc
In short: as §1

Gal(a1-4)Gal(b1-4)GlcNAc = target: Gal(a1-4)Gal(b1-4)GlcNAc
In short: as §1

[8] = target: Gal(a1-4)Gal(b1-4)GlcNAc(b1-2)Man(a1-3)[Gal(a1-4)Gal(b1-4)GlcNAc(b1-2)Man(a1-6)]Man(b1-4)GlcNAc(b1-4)GlcNAc
In short: as §1

[9] = target: Gal(a1-4)Gal(b1-4)GlcNAc(b1-3)Gal(b1-4)Glc
In short: as §1

Gal(a1-4)GlcNAc = target: Gal(a1-4)GlcNAc
In short: as §1

Gal(a1-6)Glc = target: Gal(a1-6)Glc
In short: as §1

Gal(b1-2)Gal = target: Gal(b1-2)Gal
In short: as §1

Gal(b1-3)Gal = target: Gal(b1-3)Gal
In short: as §1

Gal(b1-3)Gal(b1-4)GlcNAc = target: Gal(b1-3)Gal(b1-4)GlcNAc
In short: as §1

Gal(b1-3)GalNAc = target: Gal(b1-3)GalNAc
In short: as §1

[10] = target: Gal(b1-3)GalNAc(a1-3)[Fuc(a1-2)]Gal(b1-4)Glc
In short: as §1

[11] = target: Gal(b1-3)GalNAc(a1-3)[Fuc(a1-2)]Gal(b1-4)GlcNAc
In short: as §1

Gal(b1-3)GalNAc(b1-3)Gal = target: Gal(b1-3)GalNAc(b1-3)Gal
In short: as §1

[12] = target: Gal(b1-3)GalNAc(b1-3)Gal(a1-4)Gal(b1-4)Glc
In short: as §1

[13] = target: Gal(b1-3)GalNAc(b1-4)Gal(b1-4)Glc
In short: as §1

[14] = target: Gal(b1-3)GalNAc(b1-4)[Neu5Ac(a2-3)]Gal(b1-4)Glc
In short: as §1

Gal(b1-3)GlcNAc = target: Gal(b1-3)GlcNAc
In short: as §1

[15] = target: Gal(b1-3)GlcNAc(a1-3)Gal(b1-4)GlcNAc
In short: as §1

[16] = target: Gal(b1-3)GlcNAc(a1-6)Gal(b1-4)GlcNAc
In short: as §1

Gal(b1-3)GlcNAc(b1-2)Man = target: Gal(b1-3)GlcNAc(b1-2)Man
In short: as §1

[17] = target: Gal(b1-3)GlcNAc(b1-2)Man(a1-3)[Gal(b1-3)GlcNAc(b1-2)Man(a1-6)]Man(b1-4)GlcNAc(b1-4)GlcNAc
In short: as §1

[18] = target: Gal(b1-3)GlcNAc(b1-2)Man(a1-3)[Gal(b1-3)GlcNAc(b1-2)Man(a1-6)]Man(b1-4)GlcNAc(b1-4)[Fuc(a1-6)]GlcNAc
In short: as §1

B1: Pbx2 (Cryptococcus neoformans) (protein)
chain: AVSPLPSSTELVFYSQKRRRRRICSTATGSLSTPDPTRMTSDPYKRVGMRFSSVPRLLITFLSLLLLVSAAPPCVRFADYDSINQMFIDGGPGTKVLLCPNRLYRLSGPIIFTAADQEIATYGYPTGSERAVLRVEGRNTATAIQGDCRRCARVSVKNLVVDGNRKKLGRMRDFQLATGLVVLGGNEGQSIQNSWIKNPRGFTAIHIREGDKLQCSGARVEKNEIGPVGEEYDPEKDGDDPEMSPLGRPLADGVSIACRDSFIRDNTFRDNTDAAIVVYCSPGTLIHANHIFAQSLSAMAGILMVDSTPFNGDYTGTVVRSNIIDAVSRTIRVGIGIGPTVWSDDTETILTGGSVIGNGLKGRYMGYGIAAAGLKQWTIKDNWDEAKHEGRKSARCFDEPVNPDPIGLLYNRPTMEDCTVQSGFADHDFQYLVCIDGLYDKTNPPKHDPAPLAHDPSPTNAQEDNTVQQDGGDSKSKSIEQPREASDIEAEPSVEKMFSTGSEMMDDVLEHSHQRMHEVIDHLSRRIDILGAASAGKGSGDSKISEVLDPAMSSHLEKLQRKIEHLEFSLRSQIETAIQLRSAIQGWDQEMALVTDWEYDILLDVRHKLELSSYPHDQPLDPRLMRGQSYLNNEAVLVDDHSHPSLEGENLRAMSDRARLNANEEA
- glycan array binding signal (z-score) [1]: -0.103
- glycan array binding signal (z-score) [2]: -0.139
- glycan array binding signal (z-score) [3]: -0.214
- glycan array binding signal (z-score) [4]: -0.312
- glycan array binding signal (z-score) [5]: 0.644
- glycan array binding signal (z-score) (Gal(a1-3)GalNAc): -0.393
- glycan array binding signal (z-score) [6]: -0.508
- glycan array binding signal (z-score) [7]: -0.393
- glycan array binding signal (z-score) (Gal(a1-4)Gal(b1-4)Glc): -0.416
- glycan array binding signal (z-score) (Gal(a1-4)Gal(b1-4)GlcNAc): -0.36
- glycan array binding signal (z-score) [8]: -0.277
- glycan array binding signal (z-score) [9]: 0.145
- glycan array binding signal (z-score) (Gal(a1-4)GlcNAc): -0.389
- glycan array binding signal (z-score) (Gal(a1-6)Glc): -0.024
- glycan array binding signal (z-score) (Gal(b1-2)Gal): -0.244
- glycan array binding signal (z-score) (Gal(b1-3)Gal): -0.563
- glycan array binding signal (z-score) (Gal(b1-3)Gal(b1-4)GlcNAc): -0.32
- glycan array binding signal (z-score) (Gal(b1-3)GalNAc): 0.101
- glycan array binding signal (z-score) [10]: 0.111
- glycan array binding signal (z-score) [11]: -0.239
- glycan array binding signal (z-score) (Gal(b1-3)GalNAc(b1-3)Gal): -0.666
- glycan array binding signal (z-score) [12]: -0.417
- glycan array binding signal (z-score) [13]: -0.512
- glycan array binding signal (z-score) [14]: -0.669
- glycan array binding signal (z-score) (Gal(b1-3)GlcNAc): -0.084
- glycan array binding signal (z-score) [15]: 0.152
- glycan array binding signal (z-score) [16]: -0.5
- glycan array binding signal (z-score) (Gal(b1-3)GlcNAc(b1-2)Man): 0.185
- glycan array binding signal (z-score) [17]: -0.34
- glycan array binding signal (z-score) [18]: -0.493
